Measurements: PubChem BioAssay (NCI)
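Grown in 96-well plates, cells were treated for 48 hours with each compound at five concentrations. Insufficient inhibition: endpoint recorded as highest concentration tested. Abbreviation: GI50, concentration required for 50% inhibition of growth. TGI marks complete inhibition of growth.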

System: NCI-H322M lung
Assay: NCI-60 cell line screen, 48 h

Point of comparison: `COc1ccc(C2c3c(-c4ccccc4)nn(-c4ccccc4)c3Oc3ncn(N)c(=N)c32)cc1OC` (centres undefined), TGI 4.7 µM. Against it:
- COc1cc(CCC(=O)NS(=O)(=O)c2ccccc2)cc(OC)c1OC — higher, > 100 µM
- C=CC1=C(C)C(Cc2[nH]c(/C=c3\[nH]/c(=C/C4=NC(=O)C(C)/C4=C\C)c(C)c3CCC(=O)O)c(CCC(=O)OC)c2C)NC1=O (centres undefined) — 19-fold higher, 89 µM
- CCCCCC/C=C\CCCCCCCCCc1c(O)c(OC)cc(O)c1CN(C)C — 6.4-fold higher, 30.3 µM
- C/C(=N\Nc1ncnc2ccccc12)c1ccccn1 — within 1.5-fold, 3.17 µM
- S=C1NC2=C(COC/C2=C\c2ccccc2Cl)C(c2ccccc2Cl)N1 (centres undefined) — higher, > 100 µM
- COc1ccc(CC(C#N)c2cc(OC)c(OC)c(OC)c2)cc1 (centres undefined) — higher, > 100 µM
- CC1CCC(C#N)(NOC2=NCCN2)CC1 (centres undefined) — higher, > 100 µM
- CC(C(O)c1ccccc1)[N+](=O)[O-] (centres undefined) — higher, > 100 µM
- C[N+](C)(N)Cc1csc(-c2ccc(Cl)cc2)n1 — higher, > 100 µM
- Cc1cc(C)c(N)c(C)c1N — higher, > 100 µM
- COC(=O)C1CCC(N2C(=O)CCC2C(=O)OC)=N1 (centres undefined) — higher, > 100 µM
- COc1ccc(CCN2CCOCC2)cc1 — higher, > 100 µM
- O=c1cc(-c2ccc[nH]2)[nH]c2cc3c(cc12)OCO3 — higher, > 100 µM
- COc1ccc(Cn2c3c(c4c(O)cccc42)C(=O)c2ccccc2-3)cc1 — 3.6-fold higher, 16.8 µM
- c1cc(C2N3CCCN2CC3)ccn1 (centres undefined) — higher, > 100 µM
- N=C(N)Cn1cnc2ccccc21 — higher, > 100 µM
- CCOC(=O)CC(=Nc1cc(C)on1)N(CC)CC — higher, > 100 µM
- CCN(CC)CCNc1ccc2nnn3c4ccc(OC(C)=O)cc4c(=O)c1c23 — 3.7-fold higher, 17.4 µM
- CCOC(=S)SC/C(=N\OC(C)(C)OC)c1ccccc1 — higher, > 100 µM
- CC(C)c1ccc(O)c(O)c(=O)c1 (tested in a mixture with another compound) — higher, > 100 µM
- O=C1c2c(O)cccc2C(C(=O)CCCC(=O)C2c3cccc(O)c3C(=O)c3c(O)cccc32)c2cccc(O)c21 — within 1.5-fold, 5.99 µM
- O=C1C(Cl)=C(Nc2ccc3c(c2NC2=C(Cl)C(=O)c4ccccc4C2=O)C(=O)c2ccccc2C3=O)C(=O)c2ccccc21 — 1.7-fold higher, 7.82 µM
- Nc1ccc(S(=O)(=O)c2ccc(N=[N+]([O-])c3ccc(S(=O)(=O)c4ccc(N)cc4)cc3)cc2)cc1 — higher, > 100 µM
- CS(=O)(=O)OC1CCN(C2(c3cccc(O)c3)CCCCC2)CC1 — higher, > 100 µM
- CC1(C)CC(=O)C2=C(C1)N(c1ccccc1)C1(O)C=CC(=O)C3=C(O)c4ccccc4C(=O)C321 (centres undefined) — higher, > 100 µM
- COC(=O)C1=C2Nc3ccccc3C23CCN2C(O)C4(CC5CC67CCOC6CCN6CCC8(c9cccc(OC)c9N(C4)C58O)C67)C4OCCC4(C1)C23 (centres undefined) — higher, > 100 µM
- CC(Nc1cc(=O)n(C)c(=O)[nH]1)c1ccccc1 (centres undefined) — higher, > 100 µM
- CN(C)CCN1C(=O)c2cccc3c(-c4ccc5ncn(C6CCCCC6)c5c4)ccc(c23)C1=O — 1.7-fold higher, 8.04 µM
- CC(=O)OC1C/C(C)=C/[C@H](O)CC(C)/C=C/[C@@]2(C)CCC(C(C)(C)O)C12 (some centres undefined) — higher, > 100 µM
- COc1cc2c(cc1-c1c(C)noc1C)ncc1[nH]c(=O)n([C@H](C)c3ccccn3)c12 — higher, > 100 µM
- Cn1nc2ccc3nccc(NCCNCCCl)c3c2n1 — higher, > 100 µM
- CC(C)(C)n1cc(-c2ccnc(NCCCNS(=O)(=O)c3ccc(Cl)cc3)c2)c(-c2cccc(O)c2)n1 — within 1.5-fold, 6.86 µM
- Cc1sc2c(c1C)C(c1ccc(Cl)cc1)=N[C@@H](CC(=O)Nc1ccc(O)cc1)c1nnc(C)n1-2 — higher, > 89.6 µM
- CN(C)CCC(=O)NCc1c2nc3ccccc3nc2n2ccccc12 — higher, > 100 µM
- CC[S+](C)c1ccc(-c2c3nc(c(-c4ccc([S+](C)CC)cc4)c4ccc([nH]4)c(-c4ccc([S+](C)CC)cc4)c4nc(c(-c5ccc([S+](C)CC)cc5)c5ccc2[nH]5)C=C4)C=C3)cc1 (centres undefined) — 17-fold higher, 79.6 µM
- N#CCCCCC12C3C(=O)N(c4ccccc4)C(=O)C3ON1O[C@@H]1C(=O)N(c3ccccc3)C(=O)[C@@H]12 (some centres undefined) — higher, > 100 µM
- O=C(Cc1nc2ccccc2s1)C(=O)Nc1ccc(Cl)cc1Cl — higher, > 100 µM
- OC1NC2CC3NC(O)C(O)NC3CC2NC1O (centres undefined) — higher, > 100 µM
- Cc1ccc2oc(=O)cc(C3c4ccc([nH]4)C(c4cc(=O)oc5ccc(C)cc45)c4ccc([nH]4)C(c4cc(=O)oc5ccc(C)cc45)c4ccc([nH]4)C(c4cc(=O)oc5ccc(C)cc45)c4ccc3[nH]4)c2c1 (centres undefined) — within 1.5-fold, 3.36 µM
- O=S(=O)(Nc1nc(-c2cc(O)c(O)c(O)c2)cs1)c1ccc(Cl)cc1Cl — 6.7-fold higher, 31.7 µM
- CC1(C)OCC(C2OC(=O)C(OCc3ccccc3)=C2OCc2ccccc2)O1 (centres undefined) — higher, > 100 µM
- C=C(C)C(=O)N1c2ccc(OC)cc2CC1C(=O)OCC (centres undefined) — higher, > 100 µM
- O=C1O[C@H](COC(=O)c2ccccc2)[C@@H](OC(=O)c2ccccc2)C=C1OC(=O)c1ccccc1 — higher, > 100 µM
- [N-]=[N+]=NC(c1cn(C2CC(O)C(CO)O2)c(=O)[nH]c1=O)C(I)I (centres undefined) — higher, > 100 µM
- CN1CCN(c2ccc3nc(-c4ccc5nc(-c6ccc(N(C)CCCl)cc6)[nH]c5c4)[nH]c3c2)CC1 — 1.7-fold lower, 2.76 µM
- C[n+]1ccc2[nH]c3ccccc3c2c1 — higher, > 100 µM
- C/C=C/COc1cc(NC(=S)c2ccoc2C)ccc1OC — higher, > 100 µM
- Oc1cccc2nc3cc(CN4CCOCC4)c(CN4CCOCC4)cc3nc12 — higher, > 100 µM

Point of comparison: `O=C1C(Cl)=C(Nc2ccc3c(c2NC2=C(Cl)C(=O)c4ccccc4C2=O)C(=O)c2ccccc2C3=O)C(=O)c2ccccc21`, GI50 2.41 µM. Against it:
- C=CC1=C(C)C(Cc2[nH]c(/C=c3\[nH]/c(=C/C4=NC(=O)C(C)/C4=C\C)c(C)c3CCC(=O)O)c(CCC(=O)OC)c2C)NC1=O (centres undefined) — 17-fold higher, 40.5 µM
- CC1CCC(C#N)(NOC2=NCCN2)CC1 (centres undefined) — higher, > 100 µM
- COc1ccc(Cn2c3c(c4c(O)cccc42)C(=O)c2ccccc2-3)cc1 — within 1.5-fold, 3.58 µM
- CN(C)CCN1C(=O)c2cccc3c(-c4ccc5ncn(C6CCCCC6)c5c4)ccc(c23)C1=O — 1.6-fold lower, 1.48 µM
- COc1cc2c(cc1-c1c(C)noc1C)ncc1[nH]c(=O)n([C@H](C)c3ccccn3)c12 — 2.2-fold lower, 1.09 µM
- CC(C)(C)n1cc(-c2ccnc(NCCCNS(=O)(=O)c3ccc(Cl)cc3)c2)c(-c2cccc(O)c2)n1 — within 1.5-fold, 2.46 µM
- Cc1sc2c(c1C)C(c1ccc(Cl)cc1)=N[C@@H](CC(=O)Nc1ccc(O)cc1)c1nnc(C)n1-2 — 1.6-fold lower, 1.5 µM
- CN(C)CCC(=O)NCc1c2nc3ccccc3nc2n2ccccc12 — 17-fold higher, 40 µM
- Cc1ccc2oc(=O)cc(C3c4ccc([nH]4)C(c4cc(=O)oc5ccc(C)cc45)c4ccc([nH]4)C(c4cc(=O)oc5ccc(C)cc45)c4ccc([nH]4)C(c4cc(=O)oc5ccc(C)cc45)c4ccc3[nH]4)c2c1 (centres undefined) — 53-fold lower, 0.0451 µM
